# The list shows a part of the results.
# Key:
# Assay in all cases: glycan array binding signal (z-score within array); higher = stronger binding
# Conditions in all cases: glycan notation: IUPAC condensed, linker removed
# Gal(b1-4)Glc = molecular target: Gal(b1-4)Glc
# Summary of the method: (§1)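 Columns mapping to the same glycan were averaged after glycan names were converted to IUPAC-condensed notation. The data come from 3228 arrays in the Consortium for Functional Glycomics database, limited to those with an available protein sequence. Binding is reported as a within-array Z-score averaged across arrays of one protein sequence and across linkers.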
# Gal(b1-4)Glc6S = molecular target: Gal(b1-4)Glc6S
# Summary of the method: as §1
# Gal(b1-4)GlcNAc = molecular target: Gal(b1-4)GlcNAc
# Summary of the method: as §1
# [1] = molecular target: Gal(b1-4)GlcNAc(a1-6)Gal(b1-4)GlcNAc
# Summary of the method: as §1
# Gal(b1-4)GlcNAc(b1-2)Man = molecular target: Gal(b1-4)GlcNAc(b1-2)Man
# Summary of the method: as §1
# [2] = molecular target: Gal(b1-4)GlcNAc(b1-2)Man(a1-3)Man(b1-4)GlcNAc(b1-4)GlcNAc
# Summary of the method: as §1
# [3] = molecular target: Gal(b1-4)GlcNAc(b1-2)Man(a1-3)[Gal(b1-4)GlcNAc(b1-2)Man(a1-6)]Man(b1-4)GlcNAc(b1-4)GlcNAc
# Summary of the method: as §1
# [4] = molecular target: Gal(b1-4)GlcNAc(b1-2)Man(a1-3)[Gal(b1-4)GlcNAc(b1-2)Man(a1-6)]Man(b1-4)GlcNAc(b1-4)[Fuc(a1-6)]GlcNAc
# Summary of the method: as §1
# [5] = molecular target: Gal(b1-4)GlcNAc(b1-2)Man(a1-3)[Gal(b1-4)GlcNAc(b1-2)Man(a1-6)][Gal(b1-4)GlcNAc(b1-4)]Man(b1-4)GlcNAc(b1-4)[Fuc(a1-6)]GlcNAc
# Summary of the method: as §1
# [6] = molecular target: Gal(b1-4)GlcNAc(b1-2)Man(a1-3)[Gal(b1-4)GlcNAc(b1-2)Man(a1-6)][GlcNAc(b1-4)]Man(b1-4)GlcNAc(b1-4)[Fuc(a1-6)]GlcNAc
# Summary of the method: as §1
# [7] = molecular target: Gal(b1-4)GlcNAc(b1-2)Man(a1-3)[GlcNAc(b1-2)Man(a1-6)]Man(b1-4)GlcNAc(b1-4)GlcNAc
# Summary of the method: as §1
# [8] = molecular target: Gal(b1-4)GlcNAc(b1-2)Man(a1-3)[GlcNAc(b1-4)][Gal(b1-4)GlcNAc(b1-2)Man(a1-6)]Man(b1-4)GlcNAc(b1-4)GlcNAc
# Summary of the method: as §1
# [9] = molecular target: Gal(b1-4)GlcNAc(b1-2)Man(a1-3)[Man(a1-6)]Man(b1-4)GlcNAc(b1-4)GlcNAc
# Summary of the method: as §1
# [10] = molecular target: Gal(b1-4)GlcNAc(b1-2)Man(a1-6)Man(b1-4)GlcNAc(b1-4)GlcNAc
# Summary of the method: as §1
# [11] = molecular target: Gal(b1-4)GlcNAc(b1-2)Man(a1-6)[GlcNAc(b1-2)Man(a1-3)]Man(b1-4)GlcNAc(b1-4)GlcNAc
# Summary of the method: as §1
# [12] = molecular target: Gal(b1-4)GlcNAc(b1-2)Man(a1-6)[Man(a1-3)]Man(b1-4)GlcNAc(b1-4)GlcNAc
# Summary of the method: as §1
# [13] = molecular target: Gal(b1-4)GlcNAc(b1-2)[Gal(b1-4)GlcNAc(b1-4)]Man(a1-3)[Gal(b1-4)GlcNAc(b1-2)Man(a1-6)]Man(b1-4)GlcNAc(b1-4)GlcNAc
# Summary of the method: as §1
# [14] = molecular target: Gal(b1-4)GlcNAc(b1-2)[Gal(b1-4)GlcNAc(b1-4)]Man(a1-3)[Gal(b1-4)GlcNAc(b1-2)[Gal(b1-4)GlcNAc(b1-6)]Man(a1-6)]Man(b1-4)GlcNAc(b1-4)GlcNAc
# Summary of the method: as §1
binder,measurement,setting,value
SP16664D-bth-476-27-476 (Bacteroides thetaiotaomicron) (protein) DDLEVGKNIDESAYSGIYENNAYLRDGKSNLVSKVVELHGETYATTVKMGLSKTPNTATSAKVKIDAAYLETYNKAHNTDFALYPQDLVTFANEGILTVNANTKSAEVEMTIRAGEGLQEDKTYAIPVAISDQSSDITIKDEDAKHCIYLVKDMRNAGDAYKGEGVMQGYLFFEVNDVNPLNTLSFQLENGKLLWDVVVLFAANINYDAEAGRPRVQCNPNVQYLLDNNETLLQPLRRRGVKVLLGLLGNHDITGLAQLSEQGAKDFAREVAQYCKAYNLDGVNYDDEYSNSPDLSNPSLTNPSTAAAARLCYETKQAMPDKLVTVFDWGQMYGVATVDGVDAKEWIDIVVANYGSAAYPIGQMTKKQCSGISMEFNLGGGGSLSASKAQSMIDGGYGWFMGFAPSPAKYGSVFSRLQGGGEVLYGSNVAAPTIFYKKNDPTPYKYPDDL,glycan array binding signal (z-score),Gal(b1-4)Glc,-0.258
same,glycan array binding signal (z-score),Gal(b1-4)Glc6S,-0.023
same,glycan array binding signal (z-score),Gal(b1-4)GlcNAc,-0.242
same,glycan array binding signal (z-score),[1],-0.085
same,glycan array binding signal (z-score),Gal(b1-4)GlcNAc(b1-2)Man,0.174
same,glycan array binding signal (z-score),[2],0.63
same,glycan array binding signal (z-score),[3],-0.211
same,glycan array binding signal (z-score),[4],0.197
same,glycan array binding signal (z-score),[5],0.05
same,glycan array binding signal (z-score),[6],-0.015
same,glycan array binding signal (z-score),[7],-0.155
same,glycan array binding signal (z-score),[8],-0.2
same,glycan array binding signal (z-score),[9],-0.248
same,glycan array binding signal (z-score),[10],-0.067
same,glycan array binding signal (z-score),[11],-0.082
same,glycan array binding signal (z-score),[12],0.218
same,glycan array binding signal (z-score),[13],0.086
same,glycan array binding signal (z-score),[14],-0.383

# Reference: the supplement of paper PMC8728848
